Laboratory results reported in the supplement of paper PMC12217912.
Some of the results follow. The full chains were built here from the parent and the listed change. Inactive controls read about 0.05.

B1: TEV protease; numbered along this chain (parent)
chain: MGESLFKGPRDYNPISSSICHLTNESDGHTTSLYGIGFGPFIITNKHLFRRNNGTLVVQSLHGVFKVKDTTTLQQHLVDGRDMIIIRMPKDFPPFPQKLKFREPQREERICLVTTNFQTKSMSSMVSDTSCTFPSGDGIFWKHWIQTKDGQCGSPLVSTRDGFIVGIHSASNFTNTNNYFTSVPKNFMELLTNQEAQQWVSGWRLNADSVLWGGHKVFMVKPEEPFQPVKEATQL

Variants of: B1
Test: raw area under fraction-flipped curve 0-4 h after induction (AUC4h, not background-subtracted), DNA-recorder readout of cleavage of the substrate (dimensionless); higher = more cleavage of the substrate by the protease variant
Conditions: temperature: 34 °C; time window: 0-4 h after rhamnose induction
Protocol: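 In vivo DNA recorder in E. coli TOP10(DE3) ΔrhaA at 34 °C. Each TEVp single-site mutant (parent TEVp 0) is paired with a single-site variant of the 7-mer TEVs (canonical ENLYFQ|S). The substrate sits between flexible linkers in a Bxb1-sfGFP-TEVs-SsrA fusion, so cleavage stabilises Bxb1 and speeds flipping of a recombination array, read by NGS. The value is the raw area under the fraction-flipped curve over 0-4 h after rhamnose induction (AUC4h), with ≥20 reads per time point. It is not background-subtracted; inactive controls average about 0.047.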
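Also: Bxb1 expression induced with 0.2% (w/v) L-rhamnose at OD600 near 0.5, cultures sampled hourly, flipped fraction per protease–substrate barcode pair counted by paired-end Illumina sequencing.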

Variant	area with substrate ENAYFQS	area with substrate ENCYFQS	area with substrate ENDYFQS	area with substrate ENEYFQS	area with substrate ENGYFQS	area with substrate ENIYFQS	area with substrate ENKYFQS	area with substrate ENNYFQS	area with substrate ENPYFQS	area with substrate ENQYFQS	area with substrate ENSYFQS	area with substrate ENTYFQS	area with substrate ENVYFQS	area with substrate ENWYFQS	area with substrate ENYYFQS	area with substrate ENFYFQS	area with substrate ENHYFQS	area with substrate ENMYFQS	area with substrate ENRYFQS
C111T	0.0606	0.075	0.0653	0.0661	0.0507	0.137	0.0343	0.0683	0.0557	0.08	0.0589	0.0763	0.0893	0.0503	0.0577				
C111Y	0.0777	0.0603	0.0558		0.0879		0.0704	0.0657	0.0568	0.0666	0.0684	0.0628	0.0843	0.0684		0.0396	0.068	0.0929	
F117H	0.0647	0.0642	0.0641	0.0624	0.0537		0.0749	0.0633	0.0534	0.0658	0.0727	0.0885	0.0824			0.088		0.0783	0.0524
E108T	0.0562	0.0696	0.061	0.056		0.0818	0.064	0.0625	0.0439	0.0485	0.0524	0.0603	0.057	0.0486		0.0613			0.0686
K100R	0.0568	0.0793	0.0692	0.0858	0.0686				0.0622	0.0586	0.0507	0.0502	0.0792	0.0674			0.061	0.0606	0.055
K100V	0.0867	0.0632	0.0577				0.0632	0.0643		0.0617	0.0731	0.0839	0.0904		0.0527	0.0504	0.0393		0.0516
K100E	0.0682		0.0737	0.0639	0.0614	0.115	0.0662	0.0594		0.0368	0.017	0.0544	0.0653	0.073		0.0638	0.0548		0.0533
K100L	0.0577		0.0559	0.0806	0.0528			0.0689	0.0515	0.0526		0.0535						0.0717	0.0499
Q105C	0.103	0.0679	0.0656	0.0441		0.0954	0.0622	0.0643		0.0576	0.0517	0.0577	0.0862	0.0538			0.0535		
Q105M	0.0664	0.0786	0.059	0.067	0.0483	0.106	0.0551	0.0705	0.0548	0.0482	0.0576	0.0646	0.0886	0.0704	0.0897		0.0565	0.0892	0.0411
N116D	0.0552	0.0652	0.0605	0.0445	0.0619	0.113	0.0657		0.0682	0.047	0.0705		0.0787		0.0603	0.053	0.0465	0.0805	0.0478
N116Q	0.0419	0.07		0.0617	0.0638		0.0691	0.0593				0.056	0.0836	0.0534	0.063	0.0534	0.0633		0.0304
